# Experimental data reported in US20250051460A1 (Boehringer Ingelheim, published 2025).
# Positions count from the first letter of the chain named. Read-outs that look alike come from different tables or passages of the source.
# T1: human VEGF-A (human, UniProt P15692-4 27-191)
# T1 sequence (looked up): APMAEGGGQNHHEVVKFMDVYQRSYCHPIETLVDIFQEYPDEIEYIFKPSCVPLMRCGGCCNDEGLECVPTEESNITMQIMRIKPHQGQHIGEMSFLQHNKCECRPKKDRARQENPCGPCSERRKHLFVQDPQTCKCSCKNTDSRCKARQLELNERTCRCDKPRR
# B1: TPP-14941 (bispecific antibody, human IgG1, kappa)
# heavy: EVQLVESGGGLVQPGGSLRLSCAASGYDFTHYGMNWVRQAPGKGLEWVGWINTYTGEPTYAADFKRRFTFSLDTSKSTAYLQMNSLRAEDTAVYYCAKYPYYYGTSHWYFDVWGQGTLVTVSSASTKGPSVFPLAPSSKSTSGGTAALGCLVKDYFPEPVTVSWNSGALTSGVHTFPAVLQSSGLYSLSSVVTVPSSSLGTQTYICNVNHKPSNTKVDKRV[in this place human IgG1 Fc with changes]GGSEGKSSGSGSESKSTGGSDIQMTQSPSSLSASVGDRVTITCRTSENVYSNLAWYQQKPGKAPKLLIYAASNLQSGVPSRFSGSGSGTDYTFTISSLQPEDIATYYCQHFWGSPFTFGQGTKLEIKGGSEGKSSGSGSESKSTGGSQVQLVQSGAEVKKPGASVKVSCKASGYTFTNYDIIWVRQAPGQGLEWMGYINPYNDGTKYNEKFKGRVTMTRDTSTSTVYMELSSLRSEDTAVYYCARLLKYRRFRYYAIDYWGQGTTVTVSS
# light: DIQLTQSPSSLSASVGDRVTITCSASQDISNYLNWYQQKPGKAPKVLIYFTSSLHSGVPSRFSGSGSGTDFTLTISSLQPEDFATYYCQQYSTVPWTFGQGTKVEIKRTVAAPSVFIFPPSDEQLKSGTASVVCLLNNFYPREAKVQWKVDNALQSGNSQESVTEQDSKDSTYSLSSTLTLSKADYEKHKVYACEVTHQGLSSPVTKSFNRGEC
# B2: TPP-22214 (bispecific antibody, human IgG1, kappa)
# heavy: QVQLVESGGGLVQPGGSLRLSCAASGYDFTHYGMNWVRQAPGKGLEWVGWINTYTGEPTYAADFKRRFTFSLDTSKSTAYLQMNSLRAEDTAVYYCAKYPYYYGTSHWYFDVWGQGTLVTVSSASTKGPSVFPLAPSSKSTSGGTAALGCLVKDYFPEPVTVSWNSGALTSGVHTFPAVLQSSGLYSLSSVVTVPSSSLGTQTYICNVNHKPSNTKVDKRV[in this place human IgG1 Fc with changes]GGGGSGGGGSDIQMTQSPSSLSASVGDRVTITCRTSENVYSNLAWYQQKPGKAPKLLIYAASNLQSGVPSRFSGSGSGTDYTFTISSLQPEDIATYYCQHFWGSPFTFGCGTKLEIKGGSEGKSSGSGSESKSTGGSQVQLVQSGAEVKKPGASVKVSCKASGYTFTNYDIIWVRQAPGQCLEWMGYINPYNDGTKYNEKFKGRVTMTRDTSTSTVYMELSSLRSEDTAVYYCARLLKYRRFRYYAIDYWGQGTTVTVSS
# light: B1 light with D70G
# Key:
# Assay in all cases: cell-based or functional assay
# human VEGF-A [1] = target: T1, human VEGF-A
# human VEGF-A [2] = target: T1, human VEGF-A; remark: listed apart in the source
# human VEGF-A [3] = target: T1, human VEGF-A; remark: listed apart in the source
# human TrkB receptor [4] = target: T2, human TrkB receptor (human, UniProt Q16620 32-822)
# human TrkB receptor [5] = target: T2, human TrkB receptor; remark: listed apart in the source
# human VEGF-A [6] = target: T1, human VEGF-A; remark: listed apart in the source
# human VEGF-A [7] = target: T1, human VEGF-A; remark: listed apart in the source
# human VEGF-A [8] = target: T1, human VEGF-A; remark: listed apart in the source
# human VEGF-A [9] = target: T1, human VEGF-A; remark: listed apart in the source
# T2 sequence (Q16620 32-822): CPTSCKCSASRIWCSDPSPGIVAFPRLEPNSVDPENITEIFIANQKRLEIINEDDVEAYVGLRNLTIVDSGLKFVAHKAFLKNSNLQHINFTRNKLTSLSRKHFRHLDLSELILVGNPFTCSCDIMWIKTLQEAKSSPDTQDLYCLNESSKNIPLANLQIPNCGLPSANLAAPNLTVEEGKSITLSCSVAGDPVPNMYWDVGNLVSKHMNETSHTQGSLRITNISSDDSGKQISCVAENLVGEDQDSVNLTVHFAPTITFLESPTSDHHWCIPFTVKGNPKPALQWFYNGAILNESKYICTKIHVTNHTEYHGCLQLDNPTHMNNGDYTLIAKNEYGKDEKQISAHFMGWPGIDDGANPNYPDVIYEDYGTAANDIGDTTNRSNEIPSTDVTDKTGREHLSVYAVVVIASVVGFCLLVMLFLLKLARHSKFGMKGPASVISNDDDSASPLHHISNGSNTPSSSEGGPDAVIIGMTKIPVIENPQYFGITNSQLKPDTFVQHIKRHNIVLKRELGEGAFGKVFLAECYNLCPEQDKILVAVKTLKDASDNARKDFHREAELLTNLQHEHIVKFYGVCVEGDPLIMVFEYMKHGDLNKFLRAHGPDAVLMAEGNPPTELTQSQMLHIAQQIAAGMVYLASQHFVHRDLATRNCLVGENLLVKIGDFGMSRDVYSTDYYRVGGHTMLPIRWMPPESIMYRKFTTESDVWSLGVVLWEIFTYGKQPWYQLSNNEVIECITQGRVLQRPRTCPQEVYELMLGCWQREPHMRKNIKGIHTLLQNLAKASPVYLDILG
binder,measurement,setting,value
B1,concentration for full inhibition of VEGF-induced HRMEC proliferation,human VEGF-A [1],0.25 nM
same,fold IC50 against Ranibizumab scFv molecules or TPP-11736,human VEGF-A [1],10 fold
same,"Bottom plateau (ERK1/2 phosphorylation, counts)",human VEGF-A [2],1150 counts
same,"Bottom plateau (Src phosphorylation, counts)",human VEGF-A [2],4370 counts
same,IC50 (ERK1/2 phosphorylation),human VEGF-A [2],0.43 nM
same,IC50 (Src phosphorylation),human VEGF-A [2],0.393 nM
same,"Bottom plateau (ERK1/2 phosphorylation, counts)",human VEGF-A [3],1150 counts
same,"Bottom plateau (Src phosphorylation, counts)",human VEGF-A [3],4370 counts
same,IC50 (ERK1/2 phosphorylation),human VEGF-A [3],0.43 nM
same,IC50 (Src phosphorylation),human VEGF-A [3],0.393 nM
same,EC50 (pERK),human TrkB receptor [4],1.29 nM
same,EC50 (pTrkB),human TrkB receptor [4],6.28 nM
B2,concentration for full inhibition of VEGF-induced HRMEC proliferation,human VEGF-A [1],0.25 nM
same,TrkB-phosphorylation efficacy (AlphaLISA counts),human TrkB receptor [5],5100 AlphaLISA counts
same,TrkB-phosphorylation efficacy relative to parental clone without CC bridge (%),human TrkB receptor [5],121%
same,"TrkB-phosphorylation potency (EC50, nM)",human TrkB receptor [5],2.18 nM
same,ERK1/2 phosphorylation: IC50,human VEGF-A [6],0.415 nM
same,ERK1/2 phosphorylation: LogIC50,human VEGF-A [6],-9.38
same,HRMEC proliferation: IC50 (pM),human VEGF-A [7],88.7 pM
same,HRMEC proliferation: LogIC50,human VEGF-A [7],-10.1
same,p38-MAPK phosphorylation (T180/Y182): IC50,human VEGF-A [8],0.472 nM
same,p38-MAPK phosphorylation (T180/Y182): LogIC50,human VEGF-A [8],-9.33
same,Src phosphorylation (Y419): IC50,human VEGF-A [9],0.426 nM
same,Src phosphorylation (Y419): LogIC50,human VEGF-A [9],-9.03
